# Data taken from the RNAGym collection of RNA variant scans (doi:10.7554/elife.90254).
# Read counts are not given, so values of variants with three or more changes are uncertain.
# B1: LINE1-mini (parent)
# chain: GGCAGAGCUCAACACAGCGUGGCAAAGUGGCUGUGGCUAGACUGCC
# Variants of: B1
# Assay: self-cleavage, relative activity (ratio to wild type); higher = more cleavage; in vitro, sequencing; the parent is a self-cleaving ribozyme
row,Variant,self-cleavage
1,G5U C13G C18A,0.03
2,A14C A16C U34A C45U,0.09
3,G1U A14G G17A U38G,0.02
4,G7U A11U A16G C18A A41U G44C,0.06
5,A4G C18U A24C,0.35
6,C15G G21U G27A U32G G40C,0.01
7,C13A A24G A25G U43A,0.05
8,G33C G35A C37G,0.07
9,A6G U32G U34A,0.03
10,A14U C15U G17A G33A,0.01
11,G1A G30C G33U,0.24
12,C10U U32A C46G,0.1
13,C8U C15U G27U G30A C45G,0.02
14,U9A A12U G21U G22A,0.05
15,A25U G29U U34G,0.25
16,C8A C10A C23U G33A U43G,0.04
17,A6G A11G C15U G35C G44A,0.05
18,G7U A11G C13G G17C G22U,0.03
19,G2U U32G C45U C46U,0.01
20,G21A G27U U38G,0.03
21,C8U C10A G40U,0.04
22,G7A A11G C13U A25U A39U,0.05
23,A11C A16G G17U C37A,0
24,G2A A11G G44A,0.05

row,Variant,self-cleavage
1,C8U A14G G19U G30A C46U,0.02
2,G7U A24U G29A,0.02
3,G1U C3U G5A A6U U9A G27U C42G,0.07
4,C3U A11G U20G,0.02
5,G2U C18A U34G C37A,0.06
6,C13G A26G C37U G44A,0.09
7,G2C C3U A14G C18U G40C,0.13
8,A16C U20C C37A A41U G44C C45A,0.08
9,A25C C31G G36U C42U,0.02
10,A6G A16U A25C U34G,0
11,A12C C13A G36U,0.02
12,G2C C13G C31G G36C,0.06
13,C15U G30C C37A,0.02
14,G5U C13U C18G C37A U38A U43A,0.02
15,G7C C10U C18U G19C,0.02
16,C8G A25G G35C,0.08
17,G2C G30C C31U G36A C46G,0.36
18,G1A G17C C23U,0.09
19,G2C A11C A16C A25G G29A,0.01
20,G2U U9C A25G,0
21,G2U C15G U32C G35A,0
22,A4U C10U U32C,0.07
23,U9G C10U G33C C42A,0.01
24,C3G G27A U32G A41U G44U,0.13

row,Variant,self-cleavage
1,C23A G36U A39G C42G C46U,0.17
2,G2C U9G G19U,0.01
3,U9A A14G G40U G44U,0.45
4,G21C G33U G40U,0.13
5,C15A C18U A26U,0.04
6,G19U C31A U34A,0.04
7,G19C U20A A25C A26C G27C,0.15
8,G2A C15A G33A G35A,0.04
9,C10A G29C C31G,0.02
10,G19U U28G A39C,0.03
11,A4U A26C G29U,0.04
12,G5C C10U G33U G44A,0.02
13,G17C G22A G36A,0.07
14,C3A A6U G22U A25G,0.63
15,G1C C10A G30U,0.03
16,C3A A4C C10U A11G C23A A25U,0.02
17,G7C C10A G33U U38A U43C,0.03
18,G5C A12G G17C U20C U38A,0.07
19,U9G C13A A39G,0.47
20,A11G U34G G40U,0
21,C18U G29A C37U,0.04
22,C10G C15U C31U C45U,0.04
23,U9G A11C C13G G19A C37U A39U,0.01
24,A4U A16U G19U A25U A26U C45G,0.06

row,Variant,self-cleavage
1,G1U A12C G36U G44U,0.01
2,G1A C13A G19A G33A,0.04
3,G33U U38G G44C,0.04
4,U9C U38C G40A,0.01
5,A4U C15A G17C G22U G36C,0.04
6,C8G A26U G40C C46A,0.01
7,U20A A25U U28G,0.09
8,A11C C13U G19U U28A G29C C42U,0.01
9,A14G G36A C46G,0.02
10,G1U A12G A25U G33A U38G,0
11,G7U A12G G22U,0.01
12,G1U C13U G19C,0.03
13,C8G A11U A12C C13G G19U G22A C23G,0.03
14,G7U G22A G40U,0.18
15,C3G C10A U20A C46G,0.03
16,G17C U20G C46A,0.26
17,A12U G17A C37A C46U,0
18,G7U C18A U28A,0.02
19,C15U C18U G19U,0.16
20,G2C A4U A41C C45A,0.03
21,G1C G5U A6C A12G G17A U20A G33C A41G,0.01
22,C8G A12G G35U,0.01
23,U9A U20C G21A,0.05
24,A6G G7A A14G C31U,0.05

row,Variant,self-cleavage
1,A11U A26U A41C,0.02
2,G1A G17A C18U G36A,0.05
3,C3U C13A G17A A26C,0.05
4,A11U C13U C15U C18A G19U,0.01
5,U9C A14C G33A,0.03
6,G1A A6C G35A G40U,0.05
7,G2U C10U A11G G21C C42U,0
8,A11G A12U G19A,0.02
9,A6C G21C G44A,0.11
10,A6U G7C C15A G21A G30C,0.21
11,C13U G17U G30C G40C,0.08
12,C3A C18A A25G C31U U38C,0.06
13,U28A G30U C31U,1.77
14,C15G G17C U20G U34A,0.18
15,C3G U34A A39G,0.03
16,C13G A24G G33C,0.01
17,C13U G22C A41U,0.09
18,G2A G30A U38C C45A,0.23
19,G1U C13A G21U U34G,0.02
20,C8U G19U C46A,0.29
21,C8A A12U G19U C46U,0.07
22,C18U C37A A41C,0.03
23,C15G G29C U38C,0.06
24,U9C C13U C15G G21A,0.01

row,Variant,self-cleavage
1,C10A A16U C37A,0.02
2,G2A G17U G22U A39G,0.04
3,C15U C37U A41C C45G,0.02
4,G7A G22C A26U C37G A39G,0.01
5,C18A U20A G21A,1.61
6,C13G A16G G21C,0
7,G17C A24C C37U G40U U43A G44A,0
8,C15G G27A A41G C42U G44U,0.02
9,G29C G36A A39C,0.2
10,G19A G33U G35U U38C C45A,0.01
11,G36U A39U C45G,0
12,C8U A16U A24U G36C,0.1
13,G5A C8G G19U U28C,0.09
14,C18A U20G G36A C42U,0.06
15,C31U G36C C37U,0.01
16,G5C A11C A14U C18A C46A,0.02
17,C8U G30U U34C,0.25
18,C8A G19C C46A,0.23
19,A24C A26C G33U,0.13
20,G1U C37G U43A,0.04
21,G1C G2A G17A U20G A26C G29U,0.03
22,G1U C10G C15G G17U G22U C23G C31U,0.01
23,G1C C10G A11U C45A,0.02
24,A6C C8G C13A U32C G40U,0.03

row,Variant,self-cleavage
1,G5A G27C G29U C45G,0.03
2,U28C U32A C42G,0.11
3,U9C C15G C18U C42A,0.02
4,A4U C8A A26U G36U,0.04
5,A14U A16G C18U G19A C23U G33U A39C,0.02
6,G2A C15A G17C,0.21
7,C23A U28C U34G,0.15
8,G5U C8G G27C,0.01
9,C37U C42U U43A C45A,0
10,A4G A14C A26U,0.12
11,A6U U9G C15G U38A C45U,0.01
12,G1C G2U C3U U32C,0.08
13,C8U C10A C13U,0.09
14,G17U A24G G33U,0.04
15,A24G G30C C31U U32G C37U,0.04
16,C8U A11C C13A G35U C37U,0.04
17,G1U C23G G33U G36U A39C G40A,0.02
18,A11U G35U A41G,0
19,G1A A24C A41C,0.03
20,G19U U20A A25U C37G,0.04
21,G5U C8A U43A,0.05
22,G21U G29U G36A,0.13
23,G5A G29A C42G,0.05
